Data reported in the BET-seq Pho4 binding data (Le et al. 2018).
The other results are listed elsewhere or left out. Values were computed here from the reads of four pooled replicates and scatter widely.

What follows are sequences tested against T1, Pho4 (S. cerevisiae) (UniProt P07270) (assay: relative binding free energy (BET-seq); higher = weaker binding). Conditions: reference: library average.
T1 sequence: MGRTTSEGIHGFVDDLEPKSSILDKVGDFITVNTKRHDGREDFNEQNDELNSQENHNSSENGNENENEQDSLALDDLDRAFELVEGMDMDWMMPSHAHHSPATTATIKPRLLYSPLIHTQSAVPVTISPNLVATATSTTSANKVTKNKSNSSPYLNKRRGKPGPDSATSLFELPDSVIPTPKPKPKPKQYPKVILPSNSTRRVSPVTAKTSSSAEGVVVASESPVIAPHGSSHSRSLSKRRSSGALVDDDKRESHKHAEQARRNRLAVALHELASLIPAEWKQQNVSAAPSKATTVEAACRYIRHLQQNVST

Sequence | relative binding free energy [kcal/mol]
TTTTGCACGTGTCAGT | 0.04
AGGGTCACGTGACAGT | 0.14
AGATACACGTGGTCGT | -0.11
TTATACACGTGTGGCA | 0.2
GGAGACACGTGGTGCG | -0.03
GTCGGCACGTGTGAAA | 0.18
TTTTACACGTGGGATT | 0.02
CGGGTCACGTGCTTTG | 0.14
GGCTGCACGTGGGCTA | -0.09
TAGTACACGTGGGGAG | -0.02
AGATACACGTGAGTGG | 0.14
GGTTGCACGTGAGAGA | 0.16
GGGGTCACGTGGAAGG | 0.25
GTACTCACGTGGTGTA | 0.19
GTTCACACGTGAGGGG | 0.27
GAGGGCACGTGGATAC | 0.02
AGGACCACGTGGCGGG | -0.1
CAGTTCACGTGGGGTC | 0.1
GTATTCACGTGATAAG | 0.35
AGTTGCACGTGAGGTG | 0.21
GCATGCACGTGTGGAG | -0.07

Sequence | relative binding free energy [kcal/mol]
AATTTCACGTGTGGGA | 0.15
AGGGCCACGTGCGTGG | -0.19
GGTTACACGTGCGTGG | -0.02
GGTAGCACGTGGGGTA | -0.14
GAGTACACGTGTTTAA | 0.12
AGTGGCACGTGTCTGG | -0.15
AGCGTCACGTGGTGTA | 0.06
TAGGGCACGTGATGTG | 0.11
TGTATCACGTGTTGAG | 0.07
GGCGTCACGTGAGATG | 0.26
GGAGTCACGTGCATTG | 0.23
GAACGCACGTGTGGGG | 0
TTGGACACGTGTGTAC | 0.12
ATGGACACGTGTGAGG | 0.12
GGTGACACGTGCTGGT | 0.05
AGTATCACGTGTGATG | 0.21
TATGGCACGTGGATTT | 0
AAGGACACGTGTAGTA | 0.08
GGAAGCACGTGTAGAT | 0.07
TTGGCCACGTGTCTTT | 0.1
GATGGCACGTGTGAGG | 0.08

Sequence | relative binding free energy [kcal/mol]
TGTTCCACGTGATGGA | 0.14
CTTGTCACGTGGGAGA | 0.06
TATAGCACGTGTCTGA | -0.06
AGGTTCACGTGATGGG | 0.39
TATTCCACGTGTTGTT | 0.09
TTATGCACGTGATAGA | 0.05
TGTGACACGTGGTGTC | -0.17
GTGTACACGTGGAGTC | -0.02
CGGCGCACGTGGGGCG | -0.29
CTACGCACGTGGGGGG | -0.2
GCTATCACGTGATGGG | 0.34
TGGGTCACGTGTTTGC | 0.14
ATTTTCACGTGCCTGT | 0.25
ATTACCACGTGAGGTG | 0.18
AGACTCACGTGTTGTG | 0.13
ATAGACACGTGCGTTT | 0
CGGAGCACGTGGCGGA | -0.09
TTTAGCACGTGGTGTG | -0.14
CAAGGCACGTGGGTTG | -0.25
CTATTCACGTGAGGGT | 0.36
TGTGTCACGTGGGTGG | -0.04
